# Measurements from publication PMC6919601, “Identification of Plasmodium dipeptidyl aminopeptidase allosteric inhibitors by high throughput screening” (PLoS ONE, 2019).
# The whole screen tested about 110,000 compounds, of which about 230 (0.21%) showed an effect of 50% or more. The list shows a part of the results.
# Molecular target: DPAP1 (Plasmodium falciparum, UniProt Q8IIJ9)
# Experiment: primary screen, percent inhibition; read by cleavage of a fluorogenic dipeptide substrate; higher = more effect of the substance
# Set-up: species or system P. falciparum D10 trophozoite lysates; single well
# 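Note: 30 min substrate incubation versus DMSO and 10 µM JCP410 controls.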
# DPAP1, sequence (Q8IIJ9 whole entry, looked up): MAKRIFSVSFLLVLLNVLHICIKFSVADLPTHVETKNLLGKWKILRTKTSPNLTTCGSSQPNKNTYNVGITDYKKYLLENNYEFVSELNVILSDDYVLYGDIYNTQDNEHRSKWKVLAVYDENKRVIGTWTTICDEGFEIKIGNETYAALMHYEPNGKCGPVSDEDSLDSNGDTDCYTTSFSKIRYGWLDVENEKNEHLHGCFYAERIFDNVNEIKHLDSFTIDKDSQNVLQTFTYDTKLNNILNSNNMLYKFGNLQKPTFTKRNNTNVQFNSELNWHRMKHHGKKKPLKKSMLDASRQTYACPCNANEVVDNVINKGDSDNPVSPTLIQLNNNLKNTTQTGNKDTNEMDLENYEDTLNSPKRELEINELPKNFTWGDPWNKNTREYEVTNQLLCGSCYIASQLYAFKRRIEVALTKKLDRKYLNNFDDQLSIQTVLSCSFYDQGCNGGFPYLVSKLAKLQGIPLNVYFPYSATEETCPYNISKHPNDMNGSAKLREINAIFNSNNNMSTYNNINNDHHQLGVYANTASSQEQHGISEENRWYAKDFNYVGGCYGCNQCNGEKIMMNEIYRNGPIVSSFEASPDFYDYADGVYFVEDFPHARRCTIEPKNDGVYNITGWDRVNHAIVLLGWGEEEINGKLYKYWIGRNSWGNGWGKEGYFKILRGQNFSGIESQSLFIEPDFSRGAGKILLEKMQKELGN
row,Structure (SMILES),% Inhibition @ 10 uM [%]
1,CC(C)(C)C(=O)Nc1nnc(Cc2ccc(Cl)cc2)s1,1.58
2,CCC(=O)N1CCN(c2ccc(NC(=O)c3sc4ccccc4c3Cl)cc2)CC1,-2.77
3,COc1ccccc1N1CCN(C(=O)CN(c2ccc(C)cc2)S(C)(=O)=O)CC1,0.324
4,C/N=C(\SCC(=O)c1ccccc1)c1c(C)n(C)c2ccccc12,-2.64
5,CS(=O)(=O)N1CCN(C2=C(Cl)C(=O)c3ccccc3C2=O)CC1,2.03
6,Cc1cc(C)c(NC(=O)CN2CCN(c3ccccn3)CC2)c(C)c1,-2.63
7,O=C(NCCCCc1ccccc1)c1ccc(Cl)cc1Cl,-5.11
8,CCOC(=O)C1=CN(C(C)C)C=C(C(=O)OCC)C1c1ccc(C(F)(F)F)cc1,0.219
9,COCc1cc(C)nc(SCC(=O)Nc2cc(Br)cc3cccnc23)c1C#N,3.99
10,Nc1ccccc1C#Cc1ccccc1,0.101
11,O=C(c1cccc2c1C(=O)N(Cc1cccnc1)C2)N1CCN(Cc2ccccc2)CC1,-0.499
12,Cc1ccsc1CN(C(=O)c1ccc(Cl)cc1)C1CCS(=O)(=O)C1 (stereo not shown),-2.85
13,Cc1ccc(C)c(S(=O)(=O)N2CCN(C)CC2)c1,2.22
14,CCOC(=O)c1ccc(-n2c(C)cc(C=C3C(=O)NC(=O)NC3=O)c2C)cc1,3.34
15,C=CCN1C(=O)/C(=C\c2ccc(OC)cc2)C(C(=O)OC)=C1C,-3.4
16,COC(=O)c1ccccc1-n1c(C)nc2ccccc2c1=O,2.92
17,O=C(CSc1nc2ccsc2c(=O)n1CC1CCC(C(=O)O)CC1)NCCCc1ccccc1 (stereo not shown),3.47
18,COCC1=Nc2nc3ccccc3n2C(c2cc(Br)ccc2OC)/C1=C(/O)OC (stereo not shown),-7.08
19,Cc1ccc2c3c(cccc13)-c1ccccc1C2=O,-5.36
20,COc1cc(OC)cc(-c2nc(-c3ccc(OC)c(OC)c3)no2)c1,1.89
21,CC(Oc1ccccc1)C(=O)Nc1cccc(Cl)c1 (stereo not shown),0.843
22,O=C(Nc1ccccc1)c1ccccc1Br,0.912

row,Structure (SMILES),% Inhibition @ 10 uM [%]
1,C=CCn1c(=N)c(C(=O)NC)cc2c(=O)n3cccc(C)c3nc21,0.279
2,Cc1ccc(NC(=O)/C=C/c2ccc(Cl)cc2)cc1C,3.47
3,CN1C(=O)NC(c2ccccc2OC(F)F)C2=C1CC(C)(C)CC2=O (stereo not shown),-1.49
4,CCOc1ccc(N2C(=O)C3C4CCCN4C4(C(=O)c5ccccc5C4=O)C3C2=O)cc1 (stereo not shown),-0.992
5,CCNC(=O)C1CCCN1S(=O)(=O)c1ccc(Cl)c(Cl)c1 (stereo not shown),2.7
6,CC1Cn2c(C(=O)NCc3ccccc3)cc3cccc(c32)S1 (stereo not shown),5.08
7,CC(C)Cc1cc(-c2cccc(Br)c2)c(C#N)c(N)n1,-5.74
8,COc1ccc(N(C(C)=O)c2nc(C)cc(C)c2C#N)cc1,-3.37
9,O=C(NCCc1ccccc1)C(Cc1ccccc1)NS(=O)(=O)c1cccc2nsnc12 (stereo not shown),-3.23
10,O=C(c1scc2c1CCCC2)N1CCN(Cc2ccccc2)CC1,0.189
11,Cc1cc(C)nc(Nc2ncc(O)n2-c2ccc(Br)cc2)n1,-1.65
12,O=c1oc(-c2ccco2)nc2sc3c(c12)CCCC3,-5.11
13,CCOc1ccc(/C=C2/S/C(=N/c3ccccc3)N(C)C2=O)cc1,-1.26
14,O=C(NCc1cccs1)C1CC(=O)N(C2CCCC2)C1 (stereo not shown),3.79
15,COc1cc(C(=O)n2nc(C)cc2C)cc(OC)c1OC,15.9
16,O=S(=O)(c1ccccc1)c1nc(-c2cccs2)oc1NCc1ccccc1,4.94
17,CC(=O)Nc1c(C(=O)N2CCN(CCO)CC2)cnn1-c1ccccc1Cl,2.27
18,O=C(O)c1sc(Cl)cc1CCc1ccccc1,7.76
19,OCc1ccccc1CN1CCCCCC1,-5.01
20,COc1cc2c(cc1OC)C1C(C(=O)NC3CCCC(C)C3C)c3ccccc3C(=O)N1CC2 (stereo not shown),3.5
21,COC(=O)C1=CN(Cc2ccc(OC)cc2)C=C(C(=O)OC)C1c1ccc(C(C)C)cc1,1.86
22,COc1cccc(NC(=O)C2CCN(C(=O)c3ccc(Br)cc3)CC2)c1,-2.22

row,Structure (SMILES),% Inhibition @ 10 uM [%]
1,CCOC(=O)c1c(NC(=O)c2ccccc2)sc2c1CC(C)(C)NC2(C)C,3.6
2,O=C(NCCCO)c1nnc(-c2ccccc2)o1,5.43
3,CCN1C(=O)/C(=C/c2ccoc2)C(=O)NC1=S,2.16
4,CCOC(=O)C1C(=O)NCC1c1ccccc1 (stereo not shown),-0.0372
5,CC(C)CCC(C(N)=O)C1=NC(C)(C)Cc2ccccc21 (stereo not shown),0.177
6,O=C(O)c1c2c(nc3ccccc13)C(=O)N(C1CCCCC1)C2,-1.51
7,Cc1ccc(-c2nnc(N3CCN(C(=O)CSc4nc(C)cc(C)n4)CC3)c3ccccc23)cc1,-4.62
8,COc1cc2c(cc1OC)C(c1ccc(C(C)(C)C)cc1)NCC2 (stereo not shown),-1.02
9,CCOC(=O)N1CCN(S(=O)(=O)c2ccc3nc(O)ccc3c2)CC1,-3.27
10,CC1CCCCN1Cc1c(O)ccc2c(=O)c(-c3ccc4c(c3)OCCO4)coc12 (stereo not shown),-5.54
11,COc1ccc(OC)c(N2C(=O)CC(N3CCN(c4ccc(F)cc4)CC3)C2=O)c1 (stereo not shown),-0.545
12,COCCNC(=O)C1CCN(S(=O)(=O)N2CCC3(CC2)OCCO3)CC1,-4.83
13,CC(C)CNC(=O)C(=O)Nc1ccc(Cl)cc1,-0.414
14,Cn1c(SCC(=O)NCCc2ccccc2)nc2c1c(=O)n(Cc1ccccc1Cl)c(=O)n2C,3.81
15,CN(C)c1ccc2c(c1)OC(N)=C(C#N)C21C(=O)Nc2ccc(Br)cc21 (stereo not shown),-0.0217
16,COCC(C)NC(=O)Cn1nc(C)c(NC(=O)c2cc(-c3ccc(OC)c(OC)c3)no2)c1C (stereo not shown),0.807
17,Cc1nn(C(=O)c2ccccc2)c2c1C(=O)CC(C)(C)C2,2.4
18,COc1ccc(NS(=O)(=O)c2ccc(NC(=O)c3ccc4c(c3)OCO4)cc2)cc1,-0.598
19,COc1ccc(C(c2c(O)n3c(nc2=O)SCC3)c2c(O)n3c(nc2=O)SCC3)cc1OC,-0.865
20,COc1ccc(S(=O)(=O)N2CCC(C(=O)NC(C)C)CC2)cc1OC,-3.74
